The source gives no read counts; variants with many changes may rest on few reads.

B1: LINE1-mini (parent)
chain: GGCAGAGCUCAACACAGCGUGGCAAAGUGGCUGUGGCUAGACUGCC

In this data set the parent is B1. The data set is described as follows: self-cleavage, relative activity (ratio to wild type); higher = more cleavage; in vitro, sequencing; the parent is a self-cleaving ribozyme.
For the variant GGCAGAUUUCAACACAGCGUGGCAAAGUGGCUGUGACUAGACUGCC, the self-cleavage came to 1.33.
Under GGCAGAAAACAACACAGUGUCGCAAAGGGGCUGUUGCUAGACUUCC stands 0.06; under GGCAGAGCUCCACACUGCGUGGCCAAGUGGCUGUGGCUAGACAGCC, 0; under AGCUGAGCUCAACACAGCGUGGCAAAGUGGCUGUGGCUAGACUACC, 0.07.
Take CGGAAAGCUCAACACAGCGUGGCAAAGUGGCUGUGGCUUGACUUUC: the self-cleavage was 0.03.
Under GGCAGAGCCAAACACAGCGUGGCAAAGUGGCUGUAGCUAGACUGCC stands 0.03.
As for GGCAGAGAUCAACACAGCGUGGCUAAGUGGGUGUGGCUUGACUGCC, the self-cleavage turned out to be 0.18.
For GGAUGAGCUCAACACAGCGUGGCAAAGUGGCAGUGGCUAUAGUGCC, the self-cleavage came out at 0.08.
Under GGCAGAGCUCAACACAGCGCGACAAAGUGGCUGUGGACAGAUUGCC stands 0.01.
Consider GGCAGAGCUCAACACAGCGUGGUAAAGUGGUUGUAGCUAGACUGCC, for which the self-cleavage was determined as 0.02.
Under GGCACAGCUCAACACAGCGUGGCAAAGUGGCUGUUGCUAGACCGCC stands 0.07.
With CGCAGAGCUCAACACAGCAUGGCGAAGUGGCUGUGGCUAGCCUGCC, the self-cleavage was determined as 0.01.
GGCAUAGCUCAACACAGAGUGGCAAAGUGGCUGUGCAUAGACUGCU: the self-cleavage came to 0.
Under GGCAGUGGCCAACACAGCGUGGCAACGUUGCUGUGGCUAGACUGCC stands 0.03; under CGCAAAGCUCAAAACAGCGUGGCAAAGUGGCUGUGGCUAGACUGCC, 0.06; under GGCAGAGCUCAACACAGCGCGGCCAUGUGGCUGUGGCUGGGCUGCG, 0.
Under GGUAGAGCUCAACACAGCGUUGCAAAGUGGCUGUCGCUAGACUGCU stands 0.27.
Under CGCAGAGAUCAACACAGCCUGGCAAAUUGGCUGUGGCUAGACUGCC stands 0.03.
Regarding GGCAGAGCUUAACACUGCUUGGCACAGUGGCUGUGGCUCGACUGCC, the self-cleavage is 0.01.
Under UGCAUCGCUCAACACAGCGUCGCAAAGUGGCUGUGGCUAGACUGCC stands 0.07; under GGCAGAGCUCAACACAGCCUGGCACAAUGCCUGUGGCUAGACUGAC, 0.08.
Under AGCAGAGCUAAGCACAACGUCGCAAAGUGGCUGUGGCUAGUCUGCC stands 0.04; under GGCAGAGCUCUACACAGCGAGGCAAAGUGGCUGUGGCUAGAUUGUC, 0.04; under GGCAGAGCUUAACACAGCUUGGCAAAGUGGCUGUUGCUAGACCGCC, 0.09.
Under GGCAGAGAUAAACACAGCGUGGCAAAGUGGCUGUGGCUAAACUGGC stands 0.01.
For the variant GGCAGAUCUCAACACAGGGUGGCAAUGUGGAUGUGGCUAGAGUGCC, the self-cleavage worked out at 0.1.
Under GGCAGAGCUCAACACAUCGUGGCAAAGUGCCUGUGGCUAGACUCCC stands 0.1; under GGCAGAGUUCCACACAGCGUGGCAAACCAGCUGUAGCUAGACUGCC, 0.02; under GGCAGGGCUCAGCACAGCGUGGCAAAGUGGCUGUGGCUAGACUGCU, 0.01.
In the case of CGCAUAGCUCAACACAGCUUGGCAAAGUGGCUGUAGUUAGACUGCC, the self-cleavage is 0.01.
For GGCAGAGCGCAAAAGAGCGAGGCAAAGUGGCUGUGGCUAGACUGCC, the self-cleavage was 0.11.
With GGCAGAGCUCAACAUAGGGUGGCAAAGUGGUUGUGUCUAGCCUGCC, the self-cleavage is 0.01.
Take GGCAGAUCUCAACACAGCGUGACAAGGAGGCUGUGGCUAGACUGCC: the self-cleavage was determined as 0.21.
Under GACAGAGCGCCACACAGCGUGGCAAAGUCGGUGUGGCUAGACUGAC stands 0.
With GGCAGAGCUCAAAACAGCGUUUCAAAGUUGCUGUGGCUAGCCUGCC, the self-cleavage is 0.03.
Under GGCAGAGCUCAACACAGCGUGGCAAAGUCGCUUUGGCUAGACUUCC stands 0.02; under GGCCGAACUCAAUACAGCGUGGCAAAGUGGCUAUGGCUAGACUGCC, 0.5.
Under GGCAGAGCUCGACACAGCGUGGGAAAGUGGCUGGGGCUAGACUGCC stands 0.02.
Under GACAGUGCUCAACACAGCGUGACAAAGUGGAUGUGGCUAGACUGCC stands 0.87.
As for GGCAGAGCUCAACACAGCGUGGCCAAAUGGCUGUGACUAGACUGCC, the self-cleavage was 0.06.
Under CGCGGAGCGCAACACAGCGUGGCAAAGUGGCUGUGGCUCGGCUGCC stands 0.
As to GGCAGAGCCCAACACAGCGUGGCAAAGUGGCUGUAGAUAGACUGCC, the self-cleavage stood at 0.49.
For GGCAGAGCUCAACACAGCGUGGCAAAGUCGCUGUGGCGAGCUUGCC, the self-cleavage was found to be 0.
Under GGAAGAGCUCAUCACAGCGUGGCAAAGUGGGUGUGGCUAGACAGCA stands 0.04; under GGCAGAGCUCAACAAAGCGUGGCAAAGUGGCGGUGGCAAGACUGCC, 0.01.
Under CGGAGAGCUCAACACAGCGUGACUAAGUGGCUGUGGCUAGACUGCC stands 0.13.
Under CGCAGAGCUGAACACAGCGUGGCAAAGUGGCUGUGGCUAGAGUGCC stands 0.01; under CGCAGAGCUUAACACAGCGUGGCAAAGAGGCUGUGGCUAGACUGCC, 0.02.
Take GGCAGAGCUCAAUACAGGGUGACAAAGUGGCUGUGGCUGGAGUGUA: the self-cleavage was determined as 0.
Under GGCAGAGCUCAACACCACGUGGCAAAGUGUCUAUAGCUUGACUGCC stands 0.03; under GGCACACCUCAACACAGCGUGGCAAAGUGGCUGUGGCUAGUCUGCC, 0.08.
Under GGCAGAGGUCAGCACAGGGUGGCAAAGUGGCUGUGGCUAUACUGCC stands 0.05; under GGCAGAGCUCAACACAUAGUGGCAAAGUGGCUGUGGCUAGACUGGC, 0.06; under GGCAGAGUUCAACACAGCGUGGCAAAGUGACUGUCCUUAGACUGCC, 0.17.
GCCAGAGCUCAACACAGCGUUGCAAAGGGGCUGCGGCUAGACUGCC: the self-cleavage worked out at 0.11.
Under GGCAGAUGUCAACACAGCGUGGCAUAGUGGCUGUGGCUAGACUACC stands 0.04.

Values taken from the RNAGym collection of RNA variant scans (doi:10.7554/elife.90254).
